Whole data set: some 4,000 sequences, median “arbitrary fluorescence units” near 830, cut for the highest 2% near 6,500. The list lacks most of the strong results.
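Note: Full-length recombinant human RUNX1 bound to double-stranded DNA microarray spots, detected with an Alexa488-labelled secondary antibody after the anti-RUNX1 primary, read as scanned spot fluorescence.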

Chain of UniProt Q01196 (Q01196 whole entry): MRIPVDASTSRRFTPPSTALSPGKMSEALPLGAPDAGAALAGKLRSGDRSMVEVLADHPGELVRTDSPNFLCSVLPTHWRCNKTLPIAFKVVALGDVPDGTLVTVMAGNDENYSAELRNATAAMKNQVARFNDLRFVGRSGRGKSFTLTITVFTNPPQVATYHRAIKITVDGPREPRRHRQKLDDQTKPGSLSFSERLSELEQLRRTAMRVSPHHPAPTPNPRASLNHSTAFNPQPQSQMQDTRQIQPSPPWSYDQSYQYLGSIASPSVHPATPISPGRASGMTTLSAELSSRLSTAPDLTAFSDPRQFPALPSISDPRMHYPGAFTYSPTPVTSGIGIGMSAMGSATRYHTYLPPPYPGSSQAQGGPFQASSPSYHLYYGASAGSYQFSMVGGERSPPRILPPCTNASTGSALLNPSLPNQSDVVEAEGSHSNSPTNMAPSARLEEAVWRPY

The target in the experiment is RUNX1 (UniProt Q01196). Description: RUNX1 binding intensity (PBM fluorescence), RUNX1 alone (arbitrary fluorescence units); higher = stronger binding. As to conditions: RUNX1 concentration 2 nM; ETS1 concentration 0 nM. As to the method:
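gcPBM on 36-bp genomic-derived probes (partner site mutated) containing one RUNX1 site and no ETS1 site. Recombinant human RUNX1 (2 nM) was incubated alone or with ETS1 (25 nM) and detected by anti-RUNX1 antibody fluorescence. Values are medians over 4 replicate spots (not normalised). The probes sit in constant array flanks that are not printed.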
AAGTGGGGTGAAGGCAGCTGTACACCGCGGAGTCAC gave an RUNX1 binding intensity of 748.
To TTAACTCCACAGAAGAATAAACCACCACCGCTCACC belongs 1060; to TTCTGCGCCGCAGCCTCAGTCCCTTCTCAGGCTGGG, 831.
GCTTTTGCGCTCCCAGAGTGCCCCGCCCACAGTTCA registered an RUNX1 binding intensity of 928.
The value for GCCGCCGCAGTCGCGGCCGGTCCCCTGGAACCGTCT was 870; that for GTAACCCAGGCCACAAGTGGGGTGAAGGAGGCTGTA was 913; that for CTGTGGTAGGGCAGCTCCTCAGAAGCCGTAAATCTG was 714.
Consider GCGAAGTGTGTGGGCAACGCGGCCCGATCCTGGAGT, for which the RUNX1 binding intensity was determined as 1170.
For ACATGAAACTAAAATAAGAACAGAAAACCAAGACAG, the RUNX1 binding intensity is 795.
The value for CTCGGGGACCACACCCTGCGCGCCGGGAGCAAGGGC was 777.
To CCAGAATGCATGAAGTGCTGTGGTTTGACTTTGTTT belongs 800; to ACTACATGTCCCAGGAGGCTTCGCGGTGAGCCTCCG, 739.
The sequence GAGCCCGCGCATGTCAGGTGTGCCCACATCTAAACA yielded an RUNX1 binding intensity of 750.
The value for GGCGGGGCCTCCGTGTCCTTGCGGTGCTGGGCAGCA was 688; that for ATACATACAGCATGACATTTGTCCTGTGGGCACCAG was 698.
To CTGTCAGCATGTTGGCTTGTGAGCCCACAATCCTCT belongs 706; to TTGAAGCTCTCCCGCAGAAGCTACAGCCTCTGGAAA, 789.
As for AGGGACCCGTATGTCTGGTCTGCGGCTGCTCCTCTA, the RUNX1 binding intensity came to 822.
To AGTCCCGCAGCCCTGCGACCAGCGGCCTGAAGCAGC belongs 772; to GCCAAGGCCTGCCGCCGAGTTGGTTTTTGGGTTGTT, 850; to TGAGGTGCTAAACCACCAAGCACTTGCTGCTGTTAG, 744.
GAGAGCCTGCGGCTGGCGTTTGAGGCGTATGGCAGT registered an RUNX1 binding intensity of 689.
The value for GCCGGCTCCACTCCCGCAGTCACTTGCTGCGTCCCT was 801.
To TTCTTACGGCAACTGCTGCTGAGGCTGCGGTGGCGG belongs 642; to CCCTGTGGTTCGCGGGCGAAGCGCCTCCTCTAGCTG, 1260; to GCCACACTCCCGGCGGGGCTGCGACCGCAGAGGGGC, 1040.
To ACTGCCGTAAGAAAGCTGCCACCGCACGCAGTAGGG belongs 743; to AAAGAGAAAGGAGACAAAGTATAGCACCACAGTGAG, 751; to TTGTCTGCATGCTGTGCTGTGTGGTAGCTCTGGGTT, 644.
For the sequence TTTGCGGGCGGGCGGCGGCGAAGGCGATCGGGCCCG, the RUNX1 binding intensity came out at 968.
The value for GCCTTTCTGGAGCCACAAAGACAGAAAGAGAGCGTC was 791; that for CCATCCAGCAAGCTTATGGTGCAACCGCAGTGTGCC was 928.
The value for TCAAAACCTGACCACAGTATTTCGTGTAGTTTCTAT was 1270; that for AAATTTACCACATCAACAAAACGGGACACTGGAACC was 1330; that for AGAACAGGGTGTTCTGAGTACAGCATGAACCTCAAA was 723.

Source of the values: the supplement of paper PMC10681739.
